{"source": "PubChem BioAssay (NCI)", "experiment_in_all_cases": "NCI-60 cell line screen, 48 h", "key": {"A498 renal": {"test_system": "A498 renal"}, "HCC-2998 colon": {"test_system": "HCC-2998 colon"}, "HL-60(TB) leukemia": {"test_system": "HL-60(TB) leukemia"}, "HOP-62 NSCLC": {"test_system": "HOP-62 NSCLC"}, "HOP-92 NSCLC": {"test_system": "HOP-92 NSCLC"}, "HT29 colon": {"test_system": "HT29 colon"}, "IGROV1 ovarian": {"test_system": "IGROV1 ovarian"}, "K-562 leukemia": {"test_system": "K-562 leukemia"}, "LOX IMVI melanoma": {"test_system": "LOX IMVI melanoma"}, "MALME-3M melanoma": {"test_system": "MALME-3M melanoma"}, "MDA-MB-435": {"test_system": "MDA-MB-435"}, "MOLT-4 leukemia": {"test_system": "MOLT-4 leukemia"}, "NCI-H23 lung": {"test_system": "NCI-H23 lung"}, "NCI-H522 lung": {"test_system": "NCI-H522 lung"}, "NCI/ADR-RES ovarian": {"test_system": "NCI/ADR-RES ovarian"}, "OVCAR-4 ovarian": {"test_system": "OVCAR-4 ovarian"}, "OVCAR-8 ovarian": {"test_system": "OVCAR-8 ovarian"}, "RPMI-8226 leukemia": {"test_system": "RPMI-8226 leukemia"}, "RXF 393 renal": {"test_system": "RXF 393 renal"}, "SF-539 CNS": {"test_system": "SF-539 CNS"}, "SK-MEL-5 melanoma": {"test_system": "SK-MEL-5 melanoma"}, "SNB-75 CNS": {"test_system": "SNB-75 CNS"}, "SR leukemia": {"test_system": "SR leukemia"}, "SW-620 colon": {"test_system": "SW-620 colon"}, "T-47D breast": {"test_system": "T-47D breast"}, "TK-10 renal": {"test_system": "TK-10 renal"}, "U251 CNS": {"test_system": "U251 CNS"}, "UACC-257 melanoma": {"test_system": "UACC-257 melanoma"}, "UACC-62 melanoma": {"test_system": "UACC-62 melanoma"}, "UO-31 renal": {"test_system": "UO-31 renal"}, "SK-MEL-28 melanoma": {"test_system": "SK-MEL-28 melanoma"}, "HS 578T breast": {"test_system": "HS 578T breast"}, "NCI-H460 lung": {"test_system": "NCI-H460 lung"}, "SF-268 CNS": {"test_system": "SF-268 CNS"}, "SF-295 CNS": {"test_system": "SF-295 CNS"}, "SK-OV-3 ovarian": {"test_system": "SK-OV-3 ovarian"}, "SN12C renal": {"test_system": "SN12C renal"}, "A549 NSCLC": {"test_system": "A549 NSCLC"}, "CAKI-1 renal": {"test_system": "CAKI-1 renal"}, "DMS 114 small cell lung": {"test_system": "DMS 114 small cell lung"}, "HCT-15 colon": {"test_system": "HCT-15 colon"}, "KM20L2 colon": {"test_system": "KM20L2 colon"}, "M19-MEL melanoma": {"test_system": "M19-MEL melanoma"}, "OVCAR-3 ovarian": {"test_system": "OVCAR-3 ovarian"}, "OVCAR-5 ovarian": {"test_system": "OVCAR-5 ovarian"}, "XF 498 CNS": {"test_system": "XF 498 CNS"}}, "note": "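Step 1: Grow cells in 96-well plates. Step 2: Expose to compound for 48 hours at 5 concentrations. Step 3: Interpolate endpoints linearly; if unreached, use highest concentration. At the GI50, growth is halved.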 For part of its entries the source gives two or more results. Only these are listed. An entry can have further records. For part of these data: Records of one sample usually come from different ranges of test concentrations, which the source does not state; some values may only mark the edge of a range. For part of these data: The values listed for one entry are repeats across runs, samples, wells, individuals or studies. A tag in brackets gives the origin of a value. Letters count within one entry.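 TGI: concentration producing complete growth inhibition.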"}
{"smiles": "CCc1c2c(nc3ccc(O)cc13)-c1cc3c(c(=O)n1C2)COC(=O)[C@]3(O)CC", "values": [{"measurement": "GI50", "setting": "A498 renal", "result": "< 1 nM [1 test] and 37.9 nM [mean of 3 tests]"}, {"measurement": "TGI", "setting": "A498 renal", "result": "23.2 nM [1 test] and 306 nM [mean of 3 tests]"}, {"measurement": "GI50", "setting": "HCC-2998 colon", "result": "< 1 nM [1 test] and 86.1 nM [mean of 3 tests]"}, {"measurement": "TGI", "setting": "HCC-2998 colon", "result": "114 nM [1 test] and 4.84 µM [mean of 3 tests]"}, {"measurement": "TGI", "setting": "HL-60(TB) leukemia", "result": "< 1 nM and > 100 µM"}, {"measurement": "TGI", "setting": "HOP-62 NSCLC", "result": "1.28 nM and 201 nM"}, {"measurement": "TGI", "setting": "HOP-92 NSCLC", "result": "4.83 nM [1 test] and 193 nM [mean of 2 tests]"}, {"measurement": "GI50", "setting": "HT29 colon", "result": "< 1 nM [1 test] and 43.7 nM [mean of 3 tests]"}, {"measurement": "GI50", "setting": "IGROV1 ovarian", "result": "< 1 nM [1 test] and 225 nM [mean of 3 tests]"}, {"measurement": "TGI", "setting": "IGROV1 ovarian", "result": "294 nM [1 test] and > 25.9 µM [mean of 3 tests]"}, {"measurement": "GI50", "setting": "K-562 leukemia", "result": "< 1 nM [1 test] and 25.1 nM [mean of 3 tests]"}, {"measurement": "TGI", "setting": "LOX IMVI melanoma", "result": "9.34 nM and 135 nM"}, {"measurement": "GI50", "setting": "MALME-3M melanoma", "result": "< 1 nM [1 test] and 81.4 nM [mean of 2 tests]"}, {"measurement": "TGI", "setting": "MALME-3M melanoma", "result": "333 nM [1 test] and 4.46 µM [mean of 2 tests]"}, {"measurement": "GI50", "setting": "MDA-MB-435", "result": "< 1 nM [1 test] and 33.7 nM [mean of 3 tests]"}, {"measurement": "TGI", "setting": "MOLT-4 leukemia", "result": "< 1 nM and > 100 µM"}, {"measurement": "TGI", "setting": "NCI-H23 lung", "result": "1.39 µM and 99.8 nM"}, {"measurement": "GI50", "setting": "NCI-H522 lung", "result": "< 1 nM [1 test] and 17.4 nM [mean of 3 tests]"}, {"measurement": "GI50", "setting": "NCI/ADR-RES ovarian", "result": "< 1 nM [1 test] and 31.4 nM [mean of 3 tests]"}, {"measurement": "TGI", "setting": "OVCAR-4 ovarian", "result": "915 nM and > 31.6 µM"}, {"measurement": "GI50", "setting": "OVCAR-8 ovarian", "result": "< 1 nM [1 test] and 14.7 nM [mean of 3 tests]"}, {"measurement": "TGI", "setting": "OVCAR-8 ovarian", "result": "16.1 nM [1 test] and > 17.2 µM [mean of 3 tests]"}, {"measurement": "TGI", "setting": "RPMI-8226 leukemia", "result": "43.7 nM and 97.5 µM"}, {"measurement": "GI50", "setting": "RXF 393 renal", "result": "< 1 nM [1 test] and 31.9 nM [mean of 3 tests]"}, {"measurement": "TGI", "setting": "RXF 393 renal", "result": "17.2 nM [1 test] and 306 nM [mean of 3 tests]"}, {"measurement": "TGI", "setting": "SF-539 CNS", "result": "< 1 nM and 15.7 nM"}, {"measurement": "GI50", "setting": "SK-MEL-5 melanoma", "result": "< 1 nM [1 test] and 14.1 nM [mean of 3 tests]"}, {"measurement": "TGI", "setting": "SK-MEL-5 melanoma", "result": "7.57 nM [1 test] and 121 nM [mean of 3 tests]"}, {"measurement": "GI50", "setting": "SNB-75 CNS", "result": "< 1 nM [1 test] and 14.8 nM [mean of 3 tests]"}, {"measurement": "TGI", "setting": "SR leukemia", "result": "< 1 nM and > 100 µM"}, {"measurement": "GI50", "setting": "SW-620 colon", "result": "< 1 nM [1 test] and 26.1 nM [mean of 3 tests]"}, {"measurement": "TGI", "setting": "T-47D breast", "result": "144 nM and 2.66 µM"}, {"measurement": "TGI", "setting": "TK-10 renal", "result": "1.21 µM and 31.5 µM"}, {"measurement": "TGI", "setting": "U251 CNS", "result": "1.68 nM and 198 nM"}, {"measurement": "TGI", "setting": "UACC-257 melanoma", "result": "174 nM and 2.49 µM"}, {"measurement": "TGI", "setting": "UACC-62 melanoma", "result": "5.16 nM and 138 nM"}, {"measurement": "GI50", "setting": "UO-31 renal", "result": "< 1 nM [1 test] and 12.5 nM [mean of 3 tests]"}]}
{"smiles": "COc1ccc2[nH]c3c(C)c4ccnc(NCCCN(C)CCCNc5ccc6nnn7c8ccccc8c(=O)c5c67)c4c(C)c3c2c1", "values": [{"measurement": "TGI", "setting": "SK-MEL-28 melanoma", "result": "4.28 µM and > 100 µM"}]}
{"smiles": "COc1ccc(-c2[nH]c(=O)n(C3OC(CO)C(O)C(O)C3O)c(=O)c2C#N)cc1", "note": "(centres undefined)", "values": [{"measurement": "GI50", "setting": "HL-60(TB) leukemia", "result": "> 100 µM [sample A, 1 test] and 9.62 µM [sample B, 1 test]"}]}
{"smiles": "COc1cc(CC(C)C(C)Cc2ccc(O)c(OC)c2)ccc1O", "note": "(centres undefined)", "values": [{"measurement": "TGI", "setting": "HL-60(TB) leukemia", "result": "23.1 µM and 75.8 nM"}]}
{"smiles": "CCNC(=O)CCC(C)[C@H]1CCC2C3C(C[C@H](OC(C)=O)[C@@]21C)[C@@]1(C)CCC2(C[C@H]1C[C@H]3OC(C)=O)OOC1(CCC(C)CC1)OO2", "note": "(some centres undefined)", "values": [{"measurement": "TGI", "setting": "HS 578T breast", "result": "89.9 µM [sample A] and 7.88 µM [sample B]"}, {"measurement": "TGI", "setting": "HT29 colon", "result": "> 100 µM [sample A, 1 test] and 9.86 µM [sample B, 1 test]"}, {"measurement": "TGI", "setting": "NCI-H460 lung", "result": "> 100 µM [sample A] and 4.47 µM [sample B]"}, {"measurement": "TGI", "setting": "NCI/ADR-RES ovarian", "result": "> 100 µM [sample A] and 3.53 µM [sample B]"}, {"measurement": "TGI", "setting": "OVCAR-8 ovarian", "result": "> 100 µM [sample A] and 3.24 µM [sample B]"}, {"measurement": "TGI", "setting": "SF-268 CNS", "result": "> 100 µM [sample A, 1 test] and 3.62 µM [sample B, 1 test]"}, {"measurement": "TGI", "setting": "SF-295 CNS", "result": "> 100 µM [sample A] and 5.2 µM [sample B]"}, {"measurement": "TGI", "setting": "SK-OV-3 ovarian", "result": "> 100 µM [sample A] and 7.12 µM [sample B]"}, {"measurement": "TGI", "setting": "SN12C renal", "result": "55.9 µM [sample A] and 4.41 µM [sample B]"}, {"measurement": "TGI", "setting": "SW-620 colon", "result": "> 100 µM [sample A] and 9.93 µM [sample B]"}]}
{"smiles": "COc1cccc2c1C(CO)N1C(C#N)C3CC(C(=O)O)C(C1C2)N3C", "note": "(centres undefined)", "values": [{"measurement": "TGI", "setting": "A498 renal", "result": "7.51 µM and > 100 µM"}, {"measurement": "TGI", "setting": "A549 NSCLC", "result": "9.1 µM and > 100 µM"}, {"measurement": "TGI", "setting": "CAKI-1 renal", "result": "2.99 µM and > 100 µM"}, {"measurement": "TGI", "setting": "DMS 114 small cell lung", "result": "4.95 µM and 429 nM"}, {"measurement": "TGI", "setting": "HCT-15 colon", "result": "5.94 µM and > 62.7 µM"}, {"measurement": "GI50", "setting": "HOP-62 NSCLC", "result": "284 nM [mean of 3 tests] and 3.27 µM [mean of 4 tests]"}, {"measurement": "GI50", "setting": "IGROV1 ovarian", "result": "336 nM [mean of 3 tests] and 4.04 µM [mean of 4 tests]"}, {"measurement": "TGI", "setting": "KM20L2 colon", "result": "8.37 µM and 502 nM"}, {"measurement": "TGI", "setting": "LOX IMVI melanoma", "result": "4.92 µM and > 100 µM"}, {"measurement": "TGI", "setting": "M19-MEL melanoma", "result": "8.91 µM and 594 nM"}, {"measurement": "TGI", "setting": "MDA-MB-435", "result": "372 nM and 4.69 µM"}, {"measurement": "TGI", "setting": "MOLT-4 leukemia", "result": "7.03 µM and 370 nM"}, {"measurement": "TGI", "setting": "OVCAR-3 ovarian", "result": "3 µM and > 100 µM"}, {"measurement": "TGI", "setting": "OVCAR-5 ovarian", "result": "9.57 µM and 444 nM"}, {"measurement": "TGI", "setting": "OVCAR-8 ovarian", "result": "6.75 µM and > 100 µM"}, {"measurement": "TGI", "setting": "SW-620 colon", "result": "8.2 µM and > 100 µM"}, {"measurement": "TGI", "setting": "T-47D breast", "result": "670 nM and > 26.6 µM"}, {"measurement": "TGI", "setting": "U251 CNS", "result": "6.92 µM and > 100 µM"}, {"measurement": "TGI", "setting": "XF 498 CNS", "result": "3.38 µM and > 100 µM"}]}
